# Results: ChEMBL document CHEMBL1157539, “Thousands of chemical starting points for antimalarial lead identification” (Nature, 2010)
# Whole data set: some 13,000 compounds, median “IFI” near 4, cut for the highest 2% near 17. The list shows a part of the results.
# Experiment: GSK_TCMDC: Inhibition Frequency Index (IFI). The number of non-kinase HTS assays where a compound showed > 50 % inhibition, expressed as a percentage of the number of such assays in which the compound was tested (-0 is zero)
# Format: functional
row,SMILES,IFI [%]
1,Cc1nc(C)n(CC(=O)Nc2cccc(-c3cccc(-c4nc5cc(C(F)(F)F)ccc5[nH]4)c3)c2)n1,14
2,Cc1ccc(O)cc1Nc1ccnc2ccc(-c3csc(CNCCN4CCOCC4)n3)cc12,2.26
3,O=C(c1ccc(F)c2ccccc12)N1CCc2cc3nccc(N4CCN5CCC[C@H]5C4)c3cc21,1.52
4,CCc1cn2c3c(cc(C(=O)N[C@@H](Cc4cccc(F)c4)[C@H](O)CNC4CC4)cc13)N(C)S(=O)(=O)CC2,4.72
5,Cc1nnsc1C(=O)Nc1cccc(-c2ccc(-c3nc4ccccc4[nH]3)cc2)c1,7.27
6,CC(C)(C)CCN1CCC(NC(=O)c2ccc(-c3cccc(C(F)(F)F)c3)s2)CC1,15.8
7,CC(C)c1ccc(NC(=O)N2CCc3ccc(OCCN(C(C)C)C(C)C)cc32)c(Br)c1,2.21
8,CCCNC(=O)CN1CN(c2ccccc2)C2(CCN(C(=O)c3ccc(C(C)(C)C)cc3)CC2)C1=O,3.33
9,N#Cc1cccc(NC(=O)C2=C(CCc3ccc4c(c3)OCO4)NC(=O)NC2c2cccc(C#N)c2)c1 (configuration not stated),2.4
10,Cc1ccc(CN2CCCCC(NC(=O)c3cc4ccccc4s3)C2)cc1 (configuration not stated),4.7
11,CCN(CCCN1CCCCC1)c1cc(C)nc(Nc2ccc(Cl)c(C(F)(F)F)c2)n1,10.1
12,COc1cc(Cc2cnc(N)nc2N)ccc1OCc1ccc(-c2ccccc2C#N)cc1,9.8
13,CCC1CCCCN1S(=O)(=O)c1ccc(NC(=O)c2cc(C)on2)cc1 (configuration not stated),7.5
14,COc1ccc(C(=O)N2CCN(c3ccc([N+](=O)[O-])c(NC4CC4)c3)CC2)cc1Br,2.86
15,CCc1c[nH]c2c(N3CCCC3=O)cc(C(=O)N[C@@H](Cc3ccccc3)[C@H](O)CNC(C)(C)c3cccc(C(F)(F)F)c3)cc12,3.52
16,Cc1cc(N2CCC(C)CC2)nc2cc(O)ccc12,0.98
17,Cc1cc(NCCc2ccccc2)nc(NC(=N)Nc2ccccc2Cl)n1,6.9
18,O=C(c1ccccc1)N1CCC[C@](CCCN2CCN(c3ccccc3O)CC2)(c2ccc(Cl)c(Cl)c2)C1,7.04
19,Cc1cc(N(C)C)nc(Nc2ccc(NC(=O)CCc3ccccc3)cc2)n1,6.82

row,SMILES,IFI [%]
1,COc1cc2nc(N3CCN(C(=O)c4c(Cl)nsc4-c4ccccc4Cl)CC3)nc(N)c2cc1OC,7.76
2,c1ccc(-c2cccnn2)cc1,0.73
3,c1csc(-c2nc(N3CCCC3)ncc2-c2ccsc2)n1,7.95
4,CC1CN(Cc2cccc(F)c2)CCN1c1ccc(NC(=O)c2ccc(F)cc2)cc1 (configuration not stated),0
5,COc1ccccc1-c1cccc2c(NC(=O)Nc3ccc4nccc(N5CCN(C)CC5)c4c3)ccnc12,0.72
6,CCOc1ccc2[nH]c(-c3ccccc3)cc(=NN=Cc3ccncc3)c2c1,2.16
7,O=C(CCc1ccccc1)NC(c1ccc(Cl)cc1)c1ccc2cccnc2c1O (configuration not stated),7.48
8,CCOC(=O)C1=C(C)NC2=C(C(=O)CC(C)(C)C2)C1c1ccc(Cl)cc1 (configuration not stated),0.74
9,COc1cccc2c(N/N=C/c3cccc([N+](=O)[O-])c3)ccnc12,4.26
10,Cc1cccc2nc(-c3cccc(-c4ccc(NC(=O)Nc5ccc(F)c(F)c5F)cc4)c3)[nH]c12,5.83
11,CN(C)c1ccc(CN2CCCCC(NC(=O)c3cc(-c4ccccc4Cl)cs3)C2)cc1 (configuration not stated),3.64
12,O=C(/C=C/c1ccc(Cl)cc1)NCCCCCN1CCCC(C(=O)Nc2ccc(Cl)cc2)C1 (configuration not stated),9.52
13,CCOc1cc(C)ccc1C1CCN(CCCCNC(=O)c2ccc(NC(=O)c3cc(Cl)cc(Cl)c3)cc2)CC1,3.76
14,CC(C)c1ccc(CN2CCCCC(NC(=O)c3cc(-c4ccccc4F)cs3)C2)cc1 (configuration not stated),0
15,Cc1nnsc1C(=O)Nc1cccc(-c2ccc(-c3nc4cc(F)ccc4[nH]3)cc2)c1,7.21
16,CCCc1cn2c3c(cc(C(=O)N[C@@H](Cc4ccccc4)[C@H](O)CNC4CCCCC4)cc13)N(C)S(=O)(=O)CC2,5.47
17,COc1cc(Cc2cnc(N)nc2N)c2c(c1OC)OC(C)(C)C=C2,0.7
18,CN1c2ccc([N+](=O)[O-])cc2C(C)(C)C12C=Cc1cc(Br)cc([N+](=O)[O-])c1O2 (configuration not stated),0.75
19,Oc1ccc2[nH]cc(C3CCN(CCC(c4ccccc4)c4ccccc4)CC3)c2c1,7.97

row,SMILES,IFI [%]
1,O=S(=O)(NCCN1CCCC1)c1ccc(-c2ccc(CNC3Cc4ccccc4C3)cc2)cc1F,10.5
2,FC(F)(F)c1ccc2c(NCCNc3ccnc4cc(C(F)(F)F)ccc34)ccnc2c1,0
3,COc1ccccc1-n1c(SCC(=O)Nc2ccccc2F)nc2cccnc21,1.46
4,O=C(NCCN1CCOCC1)c1ccc(N2CCC(Oc3ccc4ccccc4c3)CC2)nc1,-0
5,CCN(CC)CCN(Cc1ccc(-c2ccc(C(F)(F)F)cc2)cc1)C(=O)Cn1c(CCc2cccc(F)c2F)nc(=O)c2cc(F)c(F)cc21,3.7
6,Cc1cc(C)c2nc(N3CCC(C(=O)NCCCN4CCC(N5CCCCC5)CC4)CC3)sc2c1,12.5
7,CC(C)(C)NCCN(Cc1ccc(-c2ccc(C(F)(F)F)cc2)cc1)C(=O)Cn1c(CCc2cccc(F)c2F)nc(=O)c2ccccc21,8.96
8,CCc1cn2c3c(cc(C(=O)N[C@@H](Cc4ccccc4)[C@H](O)CNC4CCCCC4)cc13)N(CC)S(=O)(=O)CC2,2.14
9,CN(CCC(O)c1ccc(Cl)c(Cl)c1)CC1CC1C(=O)c1ccccc1 (configuration not stated),3.67
10,Cc1cc(S(=O)(=O)N2CCCCC(c3ccc(C(F)(F)F)cc3)=N2)c(Cl)cc1Cl,2.19
11,Cc1c(Br)cc2nc(-c3ccc(C(=O)NC4CCN(Cc5ccccc5)CC4)cc3)[nH]c2c1C,2.22
12,Fc1cccc(Nc2nc(NCc3ccc(OCc4ccccc4)cc3)nc(Nc3cccc(F)c3)n2)c1,-0
13,Cc1cccc2nc(-c3ccc(-c4cccc(C(=O)NCCc5cn(C)cn5)c4)s3)[nH]c12,7.55
14,COc1ccc(OCCON)cc1,-0
15,COc1cc2c(c(Cl)c1OC)CCN(C(=O)C(F)(F)F)CC2c1ccccc1 (configuration not stated),0.81
16,CN1CCN(CCCN(Cc2ccc(-c3cccc(CNCc4ccc5c(c4)OCO5)c3)cc2)C(=O)Nc2ccccc2)CC1,5.84
17,CCCCCNc1ccnc2cc(Cl)ccc12,3.65
18,CNc1cc(-c2ccc3ccnc(N)c3c2)nc(N)n1,1.83
19,CN(C)CC(=O)Nc1cccc(Nc2nccc(NCC(O)c3ccccc3)n2)c1 (configuration not stated),4.21
